{
  "source": "paper PMC4336329",
  "about": "(PLoS ONE, 2015)",
  "note": "The campaign covered roughly 310,000 compounds. About 2,200 (0.71%) showed an effect of 50% or more. The effect is printed as a negative number. The list shows a part of the results.",
  "data": [
    {"biological_target": "human ether-à-go-go-related gene (hERG) potassium channel (human, UniProt Q12809)", "sequence (Q12809 whole entry, looked up)": "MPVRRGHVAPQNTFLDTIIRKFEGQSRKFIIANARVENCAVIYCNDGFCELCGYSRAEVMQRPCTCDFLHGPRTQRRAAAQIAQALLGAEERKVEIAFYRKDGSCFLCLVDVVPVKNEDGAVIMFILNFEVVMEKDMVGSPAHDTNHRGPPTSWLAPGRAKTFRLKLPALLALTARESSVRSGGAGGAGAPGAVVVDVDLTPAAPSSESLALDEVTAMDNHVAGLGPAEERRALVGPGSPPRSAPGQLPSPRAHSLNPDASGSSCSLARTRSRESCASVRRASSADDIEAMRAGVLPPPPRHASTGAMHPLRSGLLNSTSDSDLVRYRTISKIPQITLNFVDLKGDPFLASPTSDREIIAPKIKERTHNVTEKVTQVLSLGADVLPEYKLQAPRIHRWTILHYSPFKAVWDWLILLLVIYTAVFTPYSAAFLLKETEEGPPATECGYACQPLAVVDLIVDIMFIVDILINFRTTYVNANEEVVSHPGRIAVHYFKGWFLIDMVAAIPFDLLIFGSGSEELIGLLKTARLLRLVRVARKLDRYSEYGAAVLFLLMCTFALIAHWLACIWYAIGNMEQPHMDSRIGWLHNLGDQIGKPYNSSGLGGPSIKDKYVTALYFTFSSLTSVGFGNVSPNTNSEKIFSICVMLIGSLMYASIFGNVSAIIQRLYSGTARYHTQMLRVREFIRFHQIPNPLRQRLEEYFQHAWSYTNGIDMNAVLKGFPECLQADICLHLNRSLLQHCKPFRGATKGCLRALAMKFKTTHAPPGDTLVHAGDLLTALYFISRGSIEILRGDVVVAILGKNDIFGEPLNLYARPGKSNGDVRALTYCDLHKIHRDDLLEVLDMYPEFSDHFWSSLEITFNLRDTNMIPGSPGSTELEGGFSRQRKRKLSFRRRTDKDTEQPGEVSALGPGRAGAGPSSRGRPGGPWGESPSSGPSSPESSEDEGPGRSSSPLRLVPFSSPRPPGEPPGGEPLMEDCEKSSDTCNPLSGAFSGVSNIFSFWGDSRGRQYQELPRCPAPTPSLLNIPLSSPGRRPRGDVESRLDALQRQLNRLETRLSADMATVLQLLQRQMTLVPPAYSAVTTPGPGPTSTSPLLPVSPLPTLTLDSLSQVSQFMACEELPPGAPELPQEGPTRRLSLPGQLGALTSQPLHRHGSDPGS", "assay": "primary screen, population patch clamp on CHO cells stably expressing hERG", "units": {"hERG current change (%, negative = inhibition) at 1uM": "%"}, "values": [
      {"compound": "CCCn1nnnc1SCC(=O)c1ccc2c(c1)OCCO2", "hERG current change (%, negative = inhibition) at 1uM": 0.126},
      {"compound": "O=C(NNC(=O)c1cc(-c2ccncc2)nc2ccccc12)c1ccccc1F", "hERG current change (%, negative = inhibition) at 1uM": 5.8},
      {"compound": "Nc1c(C(=O)O)sc2nc(-c3ccccc3)cc(-c3ccc(F)cc3)c12", "hERG current change (%, negative = inhibition) at 1uM": 9.86},
      {"compound": "c1ccc(COc2ccccc2CNC2CCCC2)cc1", "hERG current change (%, negative = inhibition) at 1uM": 11.2},
      {"compound": "Cc1cc(C(=O)CCl)c(C)n1-c1cccc(S(=O)(=O)N2CCOCC2)c1", "hERG current change (%, negative = inhibition) at 1uM": -7.11},
      {"compound": "O=C(Nc1ccc(S(=O)(=O)Nc2nccs2)cc1)c1cccc(S(=O)(=O)N2CCOCC2)c1", "hERG current change (%, negative = inhibition) at 1uM": 10.5},
      {"compound": "O=C(Nc1ccc(-n2cnnn2)cc1)c1cn2ccccc2n1", "hERG current change (%, negative = inhibition) at 1uM": 16.1},
      {"compound": "Cc1ccc(-c2nc(SC(C)C(=O)N3CCCC3)n[nH]2)cc1", "note": "(stereo not drawn)", "hERG current change (%, negative = inhibition) at 1uM": 16.2},
      {"compound": "CC(=O)N1CCOc2ccc(S(=O)(=O)N3CCC(C(=O)Nc4ccc(C)cc4)CC3)cc21", "hERG current change (%, negative = inhibition) at 1uM": 15.6},
      {"compound": "CCOc1ccc(N(CC(=O)Nc2ccc(C)cc2)S(=O)(=O)c2c(C)noc2C)cc1", "hERG current change (%, negative = inhibition) at 1uM": 2.26},
      {"compound": "Cc1c(NC(=O)c2cc(C3CC3)on2)c(=O)n(-c2ccccc2)n1C", "hERG current change (%, negative = inhibition) at 1uM": 6.95},
      {"compound": "O=C(Nc1ccn(Cc2ccccc2F)n1)c1ccc(COc2cccc(Br)c2)cc1", "hERG current change (%, negative = inhibition) at 1uM": 5.64},
      {"compound": "CC(C)CCn1c(COc2ccccc2)n[nH]c1=S", "hERG current change (%, negative = inhibition) at 1uM": 11},
      {"compound": "O=C(COC(=O)C1C2CC3OC(=O)C1C3C2)Nc1ccc(Cl)cc1", "note": "(stereo not drawn)", "hERG current change (%, negative = inhibition) at 1uM": -9.01},
      {"compound": "O=C(CSc1nc(O)cc(=O)[nH]1)N1CCCc2ccccc21", "hERG current change (%, negative = inhibition) at 1uM": 21},
      {"compound": "Cn1cc(S(=O)(=O)Oc2ccccc2)c(=O)n(C)c1=O", "hERG current change (%, negative = inhibition) at 1uM": 5.66},
      {"compound": "Cc1ccc(NC2OC(CO)C(O)C(O)C2O)cc1", "note": "(stereo not drawn)", "hERG current change (%, negative = inhibition) at 1uM": -14.4},
      {"compound": "CCCC(C(=O)Nc1cccc(S(=O)(=O)N2CCCC2)c1)c1ccccc1", "note": "(stereo not drawn)", "hERG current change (%, negative = inhibition) at 1uM": -28.3},
      {"compound": "CCOc1ccccc1C(=O)NCCCN1CCN(CCCNC(=O)c2ccccc2OCC)CC1", "hERG current change (%, negative = inhibition) at 1uM": -21.6},
      {"compound": "Cc1cc(NC(=O)CNC(=O)C2CCCCC2)no1", "hERG current change (%, negative = inhibition) at 1uM": 14.7},
      {"compound": "COc1ccc(/C=N/NC(=O)c2[nH]ncc2Br)c(OC)c1", "hERG current change (%, negative = inhibition) at 1uM": 7.35},
      {"compound": "O=C(NCCS(=O)(=O)NCc1ccccn1)c1ccccc1", "hERG current change (%, negative = inhibition) at 1uM": 8.81},
      {"compound": "CCc1ccc(-c2cc(C(=O)N/N=C/c3ccccn3)[nH]n2)cc1", "hERG current change (%, negative = inhibition) at 1uM": 6.44},
      {"compound": "CC1(C)CC(O)(CCNCc2ccc3c(c2)OCO3)CCO1", "note": "(stereo not drawn)", "hERG current change (%, negative = inhibition) at 1uM": -2.79},
      {"compound": "CN(C)CCN(C(=O)c1ccc2ccccc2c1)c1nc2ccc(F)cc2s1.Cl", "hERG current change (%, negative = inhibition) at 1uM": 8.81},
      {"compound": "COc1ccc(NC(=O)c2cc(C)cc(C)c2)cc1S(=O)(=O)N1CCCCC1", "hERG current change (%, negative = inhibition) at 1uM": 14.9},
      {"compound": "CCc1ccccc1NC1Nc2cc(C)nn2S1", "note": "(stereo not drawn)", "hERG current change (%, negative = inhibition) at 1uM": 6.8},
      {"compound": "COc1ccc(C(C#N)N2N=C(C)CC2(C)C)cc1OC", "note": "(stereo not drawn)", "hERG current change (%, negative = inhibition) at 1uM": 7.74},
      {"compound": "CN(CC(=O)Nc1ccc(C#N)cc1)Cc1ccc(Cl)c(Cl)c1", "hERG current change (%, negative = inhibition) at 1uM": -13.5},
      {"compound": "C/C(=N/NC(=O)Cc1cc(=O)[nH][nH]1)c1ccc([N+](=O)[O-])cc1", "hERG current change (%, negative = inhibition) at 1uM": -9.19},
      {"compound": "O=c1ccc(Cl)nn1-c1ccccc1", "hERG current change (%, negative = inhibition) at 1uM": 13.5},
      {"compound": "O=C(Nc1cccc([N+](=O)[O-])c1)c1cc2ccccc2cc1O", "hERG current change (%, negative = inhibition) at 1uM": 14.2},
      {"compound": "O=C(NCc1ccccc1)c1cccc(Br)n1", "hERG current change (%, negative = inhibition) at 1uM": 18.5},
      {"compound": "Cn1c(=O)c(=O)n(C)c2cc(S(=O)(=O)N3CCC(N4CCCCC4)CC3)ccc21", "hERG current change (%, negative = inhibition) at 1uM": -2.69},
      {"compound": "CCCS(=O)(=O)c1nc(S(=O)(=O)c2ccc(C)cc2)c(NCCCN2CCCC2=O)s1", "hERG current change (%, negative = inhibition) at 1uM": 6.91},
      {"compound": "CCCCc1ccc(NC(=O)N[C@H](C(=O)O)C(C)C)cc1", "hERG current change (%, negative = inhibition) at 1uM": 6.8},
      {"compound": "CC[C@H](C)[C@H](NC(N)=O)C(=O)NCCc1ccc(Cl)cc1", "hERG current change (%, negative = inhibition) at 1uM": 12},
      {"compound": "COc1ccccc1N(C(=O)c1ccncc1)c1nc(-c2ccc([N+](=O)[O-])cc2)cs1", "hERG current change (%, negative = inhibition) at 1uM": 3.47},
      {"compound": "C(=N\\N1CCN(Cc2cccc3ccccc23)CC1)/c1ccco1", "hERG current change (%, negative = inhibition) at 1uM": 4.64},
      {"compound": "Cn1c(=O)c2c(ncn2CC(=O)NCc2cccnc2)n(C)c1=O", "hERG current change (%, negative = inhibition) at 1uM": 13.2},
      {"compound": "Cc1ccc(C2/C(=C(/O)c3ccccc3)C(=O)C(=O)N2CCN2CCOCC2)o1", "note": "(stereo not drawn)", "hERG current change (%, negative = inhibition) at 1uM": -0.845},
      {"compound": "CN(C)c1nc(NCc2ccccc2)nc(N/N=C/c2ccc3c(c2)OCO3)n1", "hERG current change (%, negative = inhibition) at 1uM": 9.67},
      {"compound": "O=C(c1cccc(Cl)c1)N1CCN(c2ccc(N3CCOCC3)nn2)CC1", "hERG current change (%, negative = inhibition) at 1uM": -6.34},
      {"compound": "CC1CC(C(F)F)n2nc(C(=O)O)cc2N1", "note": "(stereo not drawn)", "hERG current change (%, negative = inhibition) at 1uM": -6.31},
      {"compound": "COc1ccc(/C=C2\\SC(=O)N(CC(=O)Nc3ccc(O)cc3)C2=O)cc1OC", "hERG current change (%, negative = inhibition) at 1uM": 16.8}
    ]}
  ]
}
